Source: the supplement of paper PMC12217912
This is one part of the list. The full chains were built here from the parent and the listed change. Inactive controls read about 0.05.

B1: TEV protease; numbered along this chain (parent)
chain: MGESLFKGPRDYNPISSSICHLTNESDGHTTSLYGIGFGPFIITNKHLFRRNNGTLVVQSLHGVFKVKDTTTLQQHLVDGRDMIIIRMPKDFPPFPQKLKFREPQREERICLVTTNFQTKSMSSMVSDTSCTFPSGDGIFWKHWIQTKDGQCGSPLVSTRDGFIVGIHSASNFTNTNNYFTSVPKNFMELLTNQEAQQWVSGWRLNADSVLWGGHKVFMVKPEEPFQPVKEATQL

Variants of: B1
Assay: raw area under fraction-flipped curve 0-4 h after induction (AUC4h, not background-subtracted), DNA-recorder readout of cleavage of the substrate (dimensionless); higher = more cleavage of the substrate by the protease variant
Conditions: temperature: 34 °C; time window: 0-4 h after rhamnose induction
Experimental: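 In vivo DNA recorder in E. coli TOP10(DE3) ΔrhaA at 34 °C. Each TEVp single-site mutant (parent TEVp 0) is paired with a single-site variant of the 7-mer TEVs (canonical ENLYFQ|S). The substrate sits between flexible linkers in a Bxb1-sfGFP-TEVs-SsrA fusion, so cleavage stabilises Bxb1 and speeds flipping of a recombination array, read by NGS. The value is the raw area under the fraction-flipped curve over 0-4 h after rhamnose induction (AUC4h), with ≥20 reads per time point. It is not background-subtracted; inactive controls average about 0.047.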
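Note: Bxb1 expression induced with 0.2% (w/v) L-rhamnose at OD600 near 0.5, cultures sampled hourly, flipped fraction per protease–substrate barcode pair counted by paired-end Illumina sequencing.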

| Variant | area with substrate ENLYFQA | area with substrate ENLYFQC | area with substrate ENLYFQE | area with substrate ENLYFQH | area with substrate ENLYFQI | area with substrate ENLYFQK | area with substrate ENLYFQL | area with substrate ENLYFQM | area with substrate ENLYFQN | area with substrate ENLYFQP | area with substrate ENLYFQQ | area with substrate ENLYFQR | area with substrate ENLYFQS | area with substrate ENLYFQT | area with substrate ENLYFQV | area with substrate ENLYFQW | area with substrate ENLYFQY | area with substrate ENLYFQD | area with substrate ENLYFQG | area with substrate ENLYFQF |
| --- | --- | --- | --- | --- | --- | --- | --- | --- | --- | --- | --- | --- | --- | --- | --- | --- | --- | --- | --- | --- |
| F133V | 0.107 | 0.121 | 0.0678 | 0.113 | 0.055 | 0.0718 | 0.0631 | 0.0795 | 0.0776 | 0.0553 | 0.0881 | 0.0581 | 0.11 | 0.0817 | 0.0566 | 0.0532 | 0.0828 |  |  |  |
| S135P | 0.061 | 0.0873 | 0.0711 | 0.0567 | 0.0461 | 0.0663 | 0.0669 | 0.0534 | 0.058 | 0.0583 |  | 0.0595 | 0.0748 |  | 0.0759 |  |  | 0.0511 | 0.0772 |  |
| D137Y | 0.108 | 0.106 |  |  | 0.05 | 0.0523 |  |  | 0.0873 |  |  | 0.0617 | 0.0921 | 0.0599 | 0.0587 | 0.0687 |  | 0.072 |  |  |
| G138V | 0.0784 | 0.0774 |  |  |  | 0.0473 | 0.0678 | 0.065 | 0.0635 | 0.0397 |  |  | 0.084 | 0.0648 | 0.0488 |  |  | 0.0386 |  | 0.0658 |
| K142D | 0.0877 | 0.0773 |  | 0.0662 | 0.0629 | 0.0535 | 0.0653 | 0.062 |  |  |  | 0.0596 | 0.074 | 0.0698 | 0.0503 | 0.0607 | 0.0715 | 0.0573 | 0.0815 |  |
| K142P | 0.0679 | 0.0617 | 0.0549 | 0.0494 |  | 0.0864 | 0.0572 |  | 0.061 | 0.0357 |  | 0.0618 | 0.0687 | 0.0527 | 0.0587 | 0.0529 | 0.0619 | 0.0533 | 0.064 |  |
| K142R | 0.0937 | 0.096 |  | 0.0675 |  | 0.0623 | 0.0579 | 0.0761 | 0.0748 | 0.0531 | 0.062 | 0.0484 | 0.0832 | 0.0569 | 0.0526 | 0.0614 | 0.0752 |  |  | 0.0699 |
| H143D | 0.0617 | 0.0612 |  |  | 0.0575 |  | 0.0524 | 0.0568 | 0.0583 | 0.0658 |  | 0.0518 | 0.0635 | 0.0469 | 0.0504 | 0.0568 |  |  | 0.0665 |  |
| Q146I | 0.124 | 0.118 |  |  | 0.0603 | 0.0612 | 0.0609 |  |  |  |  | 0.0634 | 0.108 | 0.0642 | 0.074 |  |  |  | 0.0956 | 0.089 |
| T147G | 0.0783 | 0.077 |  |  | 0.0573 |  |  |  |  |  | 0.0448 |  | 0.0674 | 0.0552 | 0.0563 |  | 0.0716 |  |  |  |
| T147I | 0.0658 | 0.0915 |  | 0.0609 | 0.0445 | 0.0592 | 0.0528 | 0.0643 |  |  |  | 0.0312 | 0.0854 | 0.0637 |  | 0.0689 | 0.0728 |  |  |  |
| T147W | 0.0655 | 0.0622 | 0.0691 |  | 0.06 | 0.0604 | 0.0539 | 0.061 | 0.0584 |  | 0.0584 | 0.0548 | 0.0603 | 0.0247 | 0.0562 | 0.0562 |  | 0.0584 | 0.0626 | 0.0738 |
| K148W | 0.0777 | 0.0869 |  | 0.0615 | 0.0533 | 0.0628 | 0.0646 | 0.0828 | 0.0671 | 0.0598 | 0.0585 | 0.0625 | 0.0912 | 0.0579 | 0.0727 | 0.067 |  |  | 0.01 | 0.0883 |
| D149V | 0.0772 |  |  | 0.0673 |  |  | 0.0459 |  | 0.0734 |  |  | 0.0643 | 0.0889 | 0.0658 |  | 0.058 | 0.0724 |  | 0.0795 | 0.0746 |
| G150P | 0.0614 | 0.0529 | 0.0637 | 0.0201 | 0.0586 | 0.0487 | 0.0541 | 0.0572 | 0.0595 | 0.0625 |  | 0.0442 | 0.0587 | 0.059 |  | 0.0683 | 0.0631 | 0.0652 | 0.0608 | 0.0745 |
| G150Q | 0.0728 |  |  |  |  | 0.0489 | 0.0601 | 0.0536 |  |  |  | 0.0631 | 0.0612 | 0.0599 | 0.0511 |  |  |  | 0.0557 | 0.034 |
| Q151G | 0.119 | 0.113 |  | 0.0495 | 0.0618 | 0.0614 |  | 0.0795 | 0.0601 | 0.0634 |  | 0.0516 | 0.111 | 0.0707 | 0.0822 |  |  | 0.0603 | 0.119 |  |
| G153P | 0.0487 | 0.0538 |  |  | 0.0449 | 0.0644 | 0.0418 | 0.0287 | 0.0511 |  |  | 0.0397 | 0.0491 |  | 0.0449 | 0.0454 |  | 0.0493 |  |  |
| S154C | 0.1 | 0.121 | 0.0597 | 0.0905 | 0.0613 | 0.0598 | 0.0632 | 0.0909 | 0.0829 | 0.0785 | 0.0896 | 0.0614 | 0.104 |  | 0.0521 | 0.0538 | 0.0783 | 0.0587 | 0.0944 | 0.0683 |
| S154F | 0.0774 |  | 0.0844 |  | 0.0582 |  | 0.0586 |  | 0.0688 |  |  |  | 0.0833 | 0.0709 |  |  | 0.0519 |  |  |  |
| S154L | 0.181 |  |  | 0.102 | 0.0587 |  |  |  | 0.0872 | 0.0628 |  | 0.067 | 0.137 | 0.0645 |  | 0.0672 | 0.0756 | 0.111 |  |  |
| S154M | 0.096 |  |  |  |  | 0.063 |  |  | 0.0627 |  |  | 0.0534 | 0.0953 | 0.0592 |  | 0.0603 |  |  |  |  |
| P155N | 0.0455 | 0.0557 |  |  | 0.0389 | 0.0504 | 0.0473 | 0.0414 | 0.0574 | 0.0556 | 0.0601 | 0.0429 | 0.0501 | 0.0441 | 0.0476 | 0.0568 | 0.0471 |  | 0.0439 | 0.0426 |
| L156G | 0.0738 | 0.0624 |  |  | 0.0518 |  | 0.044 | 0.0628 | 0.0561 | 0.0551 |  | 0.0397 | 0.0547 | 0.0523 | 0.0413 |  |  |  |  |  |
| L156S | 0.0646 | 0.062 |  |  | 0.06 | 0.0525 | 0.0412 |  | 0.0628 |  |  | 0.0579 | 0.0651 |  | 0.0565 |  |  | 0.0621 |  | 0.0704 |
| S158D | 0.0784 | 0.0926 |  | 0.0449 |  | 0.0617 | 0.0636 |  | 0.0752 |  |  | 0.0544 | 0.0798 |  | 0.0579 | 0.0535 | 0.0617 |  |  | 0.0537 |
